Assay results as given in PubChem BioAssay AID1963576 (National Center for Advancing Translational Sciences (NCATS), 2024).
Out of some 46,000 compounds screened, about 60 (0.1%) were called active. Another 3% or so got no clear call; they are omitted. Calls follow the shape of the dose curve; as a rule, active = well fitted inhibition curve with a large enough effect; inconclusive = small, poorly fitted or top-dose-only effect; inactive = no such curve, though single readings can be large or run the other way. The list shows a part of the results.

test: Primary qHTS assay for Inhibitors of ovarian cancer metastasis using an organotypic tumor microenvironment (TME) model.; also: nearly all actives have a fitted effect of over 65% in size;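 as to activity change, negative = inhibition: plate controls were DMSO wells for no effect and tomatine positive control wells for full effect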; conditions: SKOV3ip1-GFP adhesion/invasion on 3D omental model, fluorescence; series mostly up to 45.8 µM; activity change, negative = inhibition: at the top concentration
Summary of the method: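 Adhesion/invasion was scored as fixed GFP-labeled SKOV3ip1 cell counts (488/509 nm), normalized to DMSO and tomatine controls. Cancer cells in serum-free medium, with four compound doses (0.36-46 umol/L), sat 2 hr at RT then 16 hr at 37 C on a 48 hr fibroblast/mesothelial/ECM culture.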

Activity change, negative = inhibition, inactive:
COc1ccccc1CNC(=O)Cc1c(C)c2cc3c(C)coc3c(C)c2oc1=O -2.16%
O=C(Cc1ccc(NC(=O)N2CCCCc3ccccc32)cc1)NCc1cccc(Br)c1 -3.94%
Cc1nnc(SCc2cc(=O)c3cc(F)ccc3[nH]2)n1C 3.23%
COc1ccc(CNC(=O)C(=O)NCC(c2ccco2)S(=O)(=O)c2cccs2)cc1 (stereo not given) -3.74%
Cc1ccc(S(=O)(=O)c2nc(-c3cccs3)oc2SCc2ccc(F)cc2)cc1 -23.6%
CC(C)c1ccccc1NC(=O)C(Cc1c[nH]c2ccccc12)NC(=O)OC(C)(C)C (stereo not given) 0.531%
C=C(C)Cn1c(SCC(=O)c2ccc(Br)cc2)nc2sc3c(c2c1=O)CCCC3 3.03%
CC1=C(C#N)C(NC(=O)c2ccccc2)(C(F)(F)F)C(=O)N1 (stereo not given) -0.153%
Cc1ccc(NS(=O)(=O)c2ccc3c(c2)CCN3C(=O)C2CC2)c(C)c1 40.4%
CCOC(=O)C1CCCN(C(=O)Cn2ncc3c(C)n(Cc4ccc(Cl)cc4)c(C)c3c2=O)C1 (stereo not given) -1.35%
Cc1ccc(NC(=O)c2ccc3c(O)c(S(=O)(=O)c4ccc(Cl)cc4)c(=O)[nH]c3c2)cc1 -8.91%
CC(=O)c1ccc(NC(=O)Nc2sc3nc4n(c(=O)c3c2C)CCC(C)CC4)cc1 (stereo not given) -1.25%
COc1ccc(CN(Cc2ccco2)C(=O)COc2ccccc2OC)cc1 -2.97%
Cc1nc(SCC(=O)Nc2ccc(C)c(Cl)c2)cc(-c2ccccc2)n1 -0.589%
CCOc1ccc(C(=O)Oc2c(Sc3ccccc3)c(C)nn2C(C)(C)C)cc1OCC 4.7%
CCc1ccc2occ(CC(=O)Nc3ccc(OC)c(Cl)c3)c2c1 7.19%
O=C(c1ccc2c(c1)CCN2S(=O)(=O)c1ccccc1)N1CCN(c2ccccc2F)CC1 5.59%
CC(C)c1ccc(CNC(=O)c2ccc(N3CCCC3)c(NC(=O)NCc3ccccc3)c2)cc1 3.19%
COc1ccccc1N1CCN(S(=O)(=O)c2ccc(F)c(C(=O)Nc3ccc(Cl)cc3C(F)(F)F)c2)CC1 0.204%
Nc1ncnc2c1nc(Cl)n2[C@@H]1O[C@H](CO)[C@@H](O)[C@@H]1O -10.8%
CCc1ccccc1-n1cnc2cc(C(=O)NC3CCCCCC3)ccc21 -5.78%
Cc1[nH]c2ccccc2c1C1(O)C(=O)N(Cc2ccccc2)c2ccc(Cl)cc21 (stereo not given) -16.3%
Cc1ccc(OCC(=O)Nc2c(C(=O)c3ccc(Cl)cc3)oc3ccccc23)cc1C 3.77%
CC(=O)N1CCCc2cc(S(=O)(=O)N3CCCC(C(=O)NC(C)C)C3)ccc21 (stereo not given) 1.23%
CSc1ccc(-c2nc3cccc(C)n3c2Nc2ccc3c(c2)OCO3)cc1 -19.2%
COc1ccc(-n2nc(C(=O)Nc3ccc(C(C)=O)cc3)nc2-c2ccccc2)cc1 -7.01%
CC(C)Oc1ccc(CNC(=O)c2sc3ncccc3c2-n2cccc2)cc1 1.32%
CCOc1ccc(C2c3c(oc4ccc(C)cc4c3=O)C(=O)N2CCCN(C)C)cc1OC (stereo not given) 3.75%
O=S(=O)(c1ccc(Cl)cc1)c1nc(-c2cccs2)oc1SCc1ccccc1F -6.84%
Cc1cn(C)c(CC(=O)Nc2ccc(F)cc2Cl)c1C(=O)O 0.204%
Cc1ccc(OCC(=O)Nc2nonc2-c2ccc(Br)cc2)cc1C -9.83%
NC(=O)Nc1cc(-c2cccc(F)c2)sc1C(=O)N[C@H]1CCCNC1 -20.6%
Cc1cc(C)cc(OCCSc2nc3ccc(NC(=O)COc4ccccc4)cc3s2)c1 -0.75%
CCOC(=O)c1c(NC(=O)C2c3ccccc3Oc3ccccc32)sc2c1CCC(CC)C2 (stereo not given) 3.76%
Clc1ccc(CCNC(c2ccc(Cl)cc2)c2nnc(-c3ccccc3)o2)cc1 (stereo not given) -3.69%
CCc1ccc(NC(=O)Cn2nc(SC)c(S(=O)(=O)c3ccc(OC)cc3)c2N)cc1 -1.71%
COc1ccc(-c2ccc(NS(=O)(=O)c3cc(C)c(C)cc3C)cc2)nn1 -13%
O=C(c1ccc(F)cc1)C1CCN(CCn2c(=O)[nH]c3ccccc3c2=O)CC1 -12.3%
CCCc1nc(C(C)(C)O)c(C(=O)O)n1Cc1ccc(-c2ccccc2-c2nn[nH]n2)cc1 0.199%
CCOC(=O)c1c(S(=O)(=O)N2CCCC(C(=O)N3CCN(c4cc(C)ccc4C)CC3)C2)c(C)n(C)c1C (stereo not given) 1.88%
CC(=O)C1=C(c2cccc([N+](=O)[O-])c2)N(C(C)=O)n2c(nnc2-c2ccc(C)cc2)S1 -5.25%
CCS(=O)(=O)NCC(c1ccco1)N1CCN(c2ccc(F)cc2)CC1 (stereo not given) -8.17%
COc1cccc(CNC(=O)Cn2nc(C)c3sc4ccccc4c3c2=O)c1OC -0.303%
Cc1cccc(Nc2sc(C(=O)c3ccc(Cl)cc3)c(N)c2C(N)=O)c1 -0.777%
COc1ccc(NC(=O)c2cc(-c3ccccc3F)no2)cc1 6.6%
O=C(NCCCN1CCN(c2cccc(Cl)c2)CC1)c1ccc2nc(Cc3ccccc3)oc2c1 -20.6%
COc1cc2c(cc1OC)n(CC(=O)c1ccc(C)cc1C)c(=O)n1nc(CCn3nc(C)cc3C)nc21 -1.89%
Cc1nn2c(C)c(C(=O)N3CCN(c4ccc(Cl)cc4)CC3)cnc2c1-c1ccc(F)cc1 -20.2%
CCOC(=O)c1c(C)[nH]c(C)c1S(=O)(=O)N1CCC(C(=O)N2CCN(c3ccc(F)cc3)CC2)CC1 -11.4%
Cc1ccc2c(=O)cc(CSc3ncn[nH]3)[nH]c2c1C -1.93%
Cc1ccnc(NS(=O)(=O)c2ccc(NC(=O)c3ccc(C)c(C)c3)cc2)n1 -0.939%
Cc1cccc(C)c1OCC(=O)N(Cc1ccco1)Cc1ccco1 -13.8%
C=Cc1ccc(Cn2c(C)c(CNCCc3ccc(OCC)cc3)c(C(=O)O)c2C)cc1 -3.7%
CN1CCN(CCNC(=O)c2cnn(-c3ccc(F)cc3)c2C2CCN(C(=O)OC(C)(C)C)CC2)CC1 6.5%
O=C(CCCN1C(=O)c2cccnc2Oc2ccc(Cl)cc21)NCc1ccc(F)cc1 -4.24%
CCCCNC(=O)c1ccc2c(c1)N=C(CC)c1ccccc1S2 5.76%
CCc1cccc(CC)c1NC(=O)c1c(C)oc2ccc(O)c(CN3CCCC3)c12 -2.67%
O=C(CN1C(=O)C2(SCC(=O)N2c2ccc(F)cc2)c2ccccc21)NC1CCCCC1 (stereo not given) 4.78%
CCOc1ccc(-n2cc(-c3ccccc3)c3c(NC4CCCC4)ncnc32)cc1 -2.01%
Cc1ccc2c(c1)C(=O)OC(C(=O)Nc1ccccc1C(=O)O)C2 (stereo not given) 0.0475%
O=C(Nc1ccccc1)Nc1nnc(SCC(=O)N2CCCCC2)s1 0.0448%
CCCCc1ccc(NC(=O)CSc2nc(=O)[nH]c3c2CCCC3)cc1 -0.253%
Cc1cc2oc(C(=O)N(Cc3ccc(N(C)C)cc3)Cc3ccco3)c(C)c2cc1Cl -6.3%
COC(=O)CCN(c1ccccc1)C(CNS(=O)(=O)c1ccccc1)c1ccccc1 (stereo not given) 2.35%
O=C(Nc1cccc(C(=O)OCc2cc(=O)n3nc(C4CC4)sc3n2)c1)c1cccc(Cl)c1 6.5%
CCOc1ccc(CCNC(=O)Cn2c(-c3cccs3)cc3ccccc32)cc1OCC -1.56%
Cc1ccc(C)c(NC(=O)CSc2ccc3nc(-c4ccccc4)cn3n2)c1 9.79%
COc1cccc(N2CC(NC(=O)COc3ccccc3F)CC2=O)c1 (stereo not given) -24.3%
CCOc1ccc(NC(=O)c2cnc3sc(N4CCOCC4)nn3c2=O)cc1 -6.04%
Oc1cc2c(cc1O)C1c3ccc(O)c(O)c3OCC1(O)C2 (stereo not given) 5.04%
O=C(CSc1nc2c([nH]c3ccccc32)c(=O)n1-c1ccccc1F)Nc1cccc(C(F)(F)F)c1 47.9%
O=C1C(=O)N(C2CCN(C(=O)c3cccc(Cl)c3)CC2)CCN1Cc1ccc(F)cc1 2.95%
CCc1ccc(CNC(=O)c2ccc(-c3nc(CSc4ccc(C)cc4)c(C)o3)cc2)cc1 1.25%
CCSc1nnc(NC(=O)c2cc(=O)c3cc(C)ccc3o2)s1 -4.83%
O=C(CSc1oc(-c2ccc(F)cc2)nc1S(=O)(=O)c1ccccc1)NC1CCCCC1 -7.18%

outcome, inactive:
CCCCn1c(SCc2ccccc2C)nc2ccsc2c1=O
Cc1cccc(N2CCN(C(=O)Cn3c(C)c4cnn(-c5ccccc5)c(=O)c4c3C)CC2)c1C
O=C(Nc1ccccc1Cl)[C@H](CSCc1ccccc1)N1Cc2ccccc2C1=O
COc1ccc(N2C(=O)C(CC(=O)Nc3ccccc3)N(CCC3=CCCCC3)C2=O)cc1 (stereo not given)
CCCCNC(=O)CCc1c(C)nc2cc(-c3ccccc3)nn2c1C
COc1ccc(-c2nnc(SC(C)C(=O)O)o2)cc1 (stereo not given)
Cc1cc(-c2ccc(S(=O)(=O)Nc3ccc(Cl)cc3)cc2)on1
COc1ccc(-c2nnc(SCCOc3ccccc3C)o2)cc1OC
O=C(Nc1nc2c(F)cccc2s1)c1ccc(S(=O)(=O)N2CCCc3ccccc32)cc1
CCn1nc(C)c2c(-c3ccccc3)cc(=O)n(C(C)C(=O)Nc3cc(C)ccc3C)c21 (stereo not given)
CCOC(=O)C(CC)N1CCN(Cc2ccc(F)cc2)C(=O)C1=O (stereo not given)
CCc1ccc(NC(=O)Cn2c(=O)n(CCCC(=O)NCc3ccc4c(c3)OCO4)c(=O)c3ccccc32)cc1
O=S(=O)(c1ccc(-c2cnc(C3CC3)o2)cc1)N1CCN(c2ccccc2F)CC1
Cc1ccc2nc(NC(=O)c3ccc(S(=O)(=O)N4CCC(C)CC4)cc3)sc2c1
Cc1ccccc1CN1C(=O)c2ccccc2Sc2ccc(C(=O)NCCc3ccccc3)cc21
CCn1cc(C(=O)N2CCN(c3cccc(Cl)c3)CC2)c(=O)c2cc(S(=O)(=O)N3CCC(C)CC3)ccc21
Cc1ccc(N2CC(NC(=O)c3cccs3)CC2=O)cc1 (stereo not given)
CC1=C(c2ccc(C)c(C)c2)S(=O)(=O)N(Cc2ccc(C(=O)Nc3cc(F)ccc3F)cc2)C1=O
Cc1ccc(N2C(=O)CSC23C(=O)N(CC(=O)NCc2ccccc2)c2ccccc23)cc1 (stereo not given)
CCOc1ccc(S(=O)(=O)N2CCN(Cc3nc4ccc(C)cc4o3)CC2)cc1
